# Experimental data taken from PubChem BioAssay AID1671193 (National Center for Advancing Translational Sciences (NCATS), 2021).
# The campaign covered roughly 150,000 compounds. About 180 (0.12%) were called active. Inconclusive means that the source gave no clear call. Such entries were picked first, then a sample of the others. The call rests on the fitted dose curve; in most records, active means well fitted cell-killing curve with a large enough effect; inconclusive means small, poorly fitted or top-dose-only effect, or effect the other way; inactive means flat fitted curve, though single readings scatter. Where the call is inconclusive, the potency comes from a doubtful curve fit.
# Test: GF-AFC viability counterscreen for inhibitors of alpha-synuclein gene (SNCA) expression; further: nearly all actives have a fitted effect of over 30% in size;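 on activity change, negative = cytotoxicity: 0% = DMSO-treated cells and -100% = medium-only wells without cells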
# Settings: HEK-293-SNCA-luc viability, GF-AFC fluorescence, 24 h; activity change, negative = cytotoxicity: at 57.1 µM (top of the series) unless noted
# How it was run: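 HEK-293-SNCA-luc cells (1500/well) plated 24 h, then exposed 24 h to a dilution series; GF-AFC added 30 min at 37C, fluorescence 405/540 nm; normalised to medium-only and DMSO wells, Hill fit.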
# Potency means the concentration at half of the fitted maximal effect; tags describe the fitted curve by direction and shape.
Structure (SMILES),Potency,"activity change, negative = cytotoxicity"
O=C(NC1C[C@H]2CC[C@@H](C1)N2C(=O)C1CCCCCC1)c1ccncc1 (stereo partly specified),"inconclusive: 17.8 µM [cytotoxic, partial curve, poor fit]",–
CC1CCN(C(=O)CN2c3ccc(C(C)C)cc3-c3ccccc3S2(=O)=O)CC1,"inconclusive: 15.8 µM [cytotoxic, partial curve, poor fit]",–
COC(=O)[C@]1(Cc2ccc(O)c(CC=C(C)C)c2)OC(=O)C(O)=C1c1ccc(O)cc1,"inconclusive: 3.67 µM [rising, single point]",–
COc1ccc(OC)c(CNC(=O)c2ccc(N3CC4CC(C3)[C@H]3CCCC(=O)N3C4)nc2)c1 (stereo partly specified),"inconclusive: 1.12 µM [rising, full curve, poor fit]",–
COc1ccccc1NC(=O)c1c(C)cc(C)nc1SCC(=O)Nc1ccc(C)c(C)c1,"inconclusive: 0.891 µM [cytotoxic, partial curve, poor fit]",–
CCCNC(=O)[C@@H]1Cc2cn(Cc3ccccn3)c3cccc(c23)[C@H](CC(C)C)N1,"inconclusive: 56.2 µM [cytotoxic, single point]",–
c1ccc2c(CN3CCC[C@H]3c3nc(-c4ccc(OC5CCCCC5)nc4)no3)c[nH]c2c1,–,inactive: 6.91%
COc1ccc(NC(=O)Cn2c(-c3ccc(F)cc3)nc(C)c(CCO)c2=O)cc1OC,–,inactive: -15.1%
CCN1C(=O)C2CC3(CCN(C(=O)NC)CC3)CN2C1=O (stereo unspecified),–,inactive: 6.87%
O=C(CCC1CCCC1)N1CCc2c([nH]c3ccccc23)C1c1ccc(F)cc1 (stereo unspecified),–,inactive: -4%
COc1ccc(C2Cn3nnc(C(=O)N4CCC(C(=O)NC5CCCCCC5)CC4)c3CO2)cc1 (stereo unspecified),–,inactive: 1.17%
COc1ccc(C(=O)NC2CCN(c3cn[nH]c(=O)c3)CC2)cn1,"inconclusive: 10 µM [cytotoxic, partial curve, poor fit]",–
CC1CCN(C(=O)c2csc(N3CCN(c4ccc(Cl)cc4)CC3)n2)CC1,–,inactive: -14.7%
COc1ccc(NC(=O)N2Cc3[nH]cnc3C[C@H]2c2nc(-c3ccc(C)cc3)no2)cc1,"inconclusive: 5.62 µM [cytotoxic, full curve]",–
CCCCCCOc1cc2c(cc1N(C)c1ncc(C(=O)O)cn1)C(C)(C)CCC2(C)C,"inconclusive: 26.7 µM [cytotoxic, single point]",–
Cc1ccccc1Cn1cc(-c2ccncc2)cc1C(=O)N(C)Cc1ccco1,"inconclusive: 15.8 µM [cytotoxic, partial curve, poor fit]",–
CC[C@@H](N)CNc1ccnc(-c2cc(-c3cnn(C)c3)ccc2O)n1,"inconclusive: 10.6 µM [cytotoxic, partial curve, poor fit]",–
COc1cc(OC(F)(F)F)ccc1C(=O)N1CCC(C)(C(=O)O)CC1,–,inactive: 6.99%
O=C(c1cccs1)N1CC[C@@H]2COCCN(Cc3cccnc3)[C@@H]2C1,–,inactive: -12.6%
Cc1ccc(C#N)c(N2CCN(C3CCCC3)C(CCO)C2)n1 (stereo unspecified),"inconclusive: 7.08 µM [cytotoxic, single point]",–
COc1ccc2oc(-c3ccc(C)c(NC(=O)c4ccc5c(c4)OCCO5)c3)nc2c1,"inconclusive: 10 µM [cytotoxic, full curve, poor fit]",–
COc1ccc(-c2nc(C3CC3)nc3c2CCN(Cc2cccc4ccccc24)CC3)cc1,"inconclusive: 7.08 µM [cytotoxic, single point]",–

Structure (SMILES),Potency,"activity change, negative = cytotoxicity"
COCCCn1c(=N)c(C(=O)NCc2cccnc2)cc2c(=O)n3cccc(C)c3nc21,"inconclusive: 6.31 µM [rising, full curve]",–
COc1ccc(Oc2ncc3ncc(=O)n(C[C@H]4CCCO4)c3n2)cc1,"inconclusive: 35.5 µM [cytotoxic, single point]",–
CCCCCCCCCCCCCC(=O)N[C@H](CO)[C@H](O)c1ccc([N+](=O)[O-])cc1,–,inactive: -9.82%
COc1ccc(Nc2ccnc(N3CCC(NC(=O)Nc4ccc(Cl)cc4)CC3)n2)cc1,–,inactive: 5.35% [at 12.5 µM]
Cc1ccc(-c2cc3c(=O)n(CCNC(=O)c4ccc[nH]c4=O)ccn3n2)cc1C,–,inactive: -13.8%
O=C([C@H]1CCCN1C(=O)c1cccc(Cl)c1)N1CCC(N2CCOC2=O)CC1,–,inactive: 1.04%
O=C(OCc1cc(=O)n2nc(-c3cccs3)sc2n1)c1ccccc1,"inconclusive: 39.8 µM [cytotoxic, single point]",–
CCOc1ccc(CC(=O)N2CCC[C@H]2c2nc(-c3ccccc3)no2)cc1OCC,"inconclusive: 25.1 µM [cytotoxic, partial curve, poor fit]",–
O=C(Cc1ccc(F)cc1)N1CCC2(C1)C(=O)N(CCc1ccccc1)c1ccccc12 (stereo unspecified),inactive,–
CN(C)C(=O)C1CN(C(=O)Nc2ccc(F)cc2)CC12CCOCC2 (stereo unspecified),"inconclusive: 31.6 µM [rising, partial curve, poor fit]",–
COc1ccc(NC(=O)c2c(NCc3cccs3)sc3c2CCCC3)c(OC)c1,"inconclusive: 22.4 µM [cytotoxic, partial curve, poor fit]",–
CCOc1ccccc1NC(=O)N1CCN(Cc2cc(=O)n3nc(-c4ccc(C)cc4)sc3n2)CC1,–,inactive: -4.2%
COc1cc(C(=O)NCCSc2c(-c3ccccc3)[nH]c3ccccc23)cc(OC)c1OC,"inconclusive: 39.8 µM [cytotoxic, single point]",–
CCC1Oc2ccc(NC(=O)COc3ccccc3)cc2CN(Cc2ccc(F)cc2)C1=O (stereo unspecified),–,inactive: -0.847%
CC(Nc1ccc(-c2nc(CCCc3ccccc3)no2)cn1)c1cnn(C)c1 (stereo unspecified),–,inactive: -4.18%
COc1ccccc1Cn1c(=O)c(C(=O)NC(C)c2ccc(F)cc2)nc2cccnc21 (stereo unspecified),–,inactive: -12.6%
CCc1ccc(S(=O)(=O)c2cn(C)c3cc(N4CCN(CC)CC4)c(F)cc3c2=O)cc1,"inconclusive: 2 µM [cytotoxic, full curve, poor fit]",–
CCCCCNC(=O)c1nnn2cc(C)[nH]c(=O)c12,–,inactive: -2.8%
O=C(NCc1cccc(C(F)(F)F)c1)c1ccc2nc(-c3ccccn3)oc2c1,–,inactive: -1.28%
Cc1noc(-c2ccc(OC3CN(C(=O)NC4CCCCC4)C3)cc2)n1,–,inactive: 1.5%
O=C(Nc1ccc(Cl)cc1)c1nc2c(o1)CCN(Cc1cccc(F)c1)CC2,–,inactive: -16.8% [at 87.6 µM]
O=C1c2c(nc(COc3ccc4c(c3)OCO4)n2Cc2ccccc2)NCCN1Cc1ccccc1F,"inconclusive: 31.6 µM [cytotoxic, single point]",–

Structure (SMILES),Potency,"activity change, negative = cytotoxicity"
O=c1c(-c2ccc(F)cc2)nc2cnc(N3CCOCC3)nc2n1-c1ccccc1,"inconclusive: 3.55 µM [rising, partial curve, poor fit]",–
CC(C)(C)C(=O)NC1CCN(c2cn[nH]c(=O)c2)CC1,"inconclusive: 3.16 µM [cytotoxic, partial curve, poor fit]",–
COCc1noc(CCNC(=O)c2cc(S(N)(=O)=O)ccc2F)n1,–,inactive: -0.734%
COc1ccc(C2Cn3cnc(C(=O)N4CCC(C(=O)NCc5ccc(C)cc5)CC4)c3CO2)cc1 (stereo unspecified),–,inactive: 11.2%
O=C(Cn1c(SCCOc2ccccc2Cl)nc2ccccc21)N1CCCCC1,"inconclusive: 7.94 µM [cytotoxic, partial curve]",–
CCOc1cc(C(=O)NC2CCN(c3cc(-c4cccs4)[nH]n3)C2)cc(OCC)c1OCC (stereo unspecified),"inconclusive: 31.6 µM [cytotoxic, single point]",–
CCc1ccc(C(=O)c2cn(CC(=O)Nc3ccc(OC)c(Cl)c3)c3nc(C)ccc3c2=O)cc1,"inconclusive: 2.24 µM [rising, full curve, poor fit]",–
CN(C)C[C@@H]1CN(C(=O)c2cccc(N3CCCC3=O)c2)C[C@@H]1CO,–,inactive: 9.33%
CC1=C[C@@H](CNC(=O)c2cncnc2)[C@H](C(C)C)C[C@H]1Cc1nnc(-c2ccccc2F)o1,"inconclusive: 17.8 µM [cytotoxic, partial curve, poor fit]",–
CNC(=O)N1CCC(C2CCN(C(=O)c3cnccc3C)C2)CC1 (stereo unspecified),–,inactive: -3.23% [at 12.5 µM]
CN(C)c1ccc(CN2CCC3(CC2)CC(=O)c2ccc(Cl)cc2O3)cc1,"inconclusive: 39.8 µM [cytotoxic, single point]",–
Cc1csc(Nc2ccc3c(n2)CN(C)C(=O)CO3)n1,"inconclusive: 15.8 µM [cytotoxic, partial curve]",–
CNC(=O)c1ccccc1Nc1nc(Nc2ccc3c(c2OC)CCCC(N2CCN(CCO)CC2)C3)ncc1Cl (stereo unspecified),"inconclusive: 1.5 µM [cytotoxic, full curve]",–
Fc1cccc(CSc2nc(NCCc3ccccc3)c3ccccc3n2)c1,"inconclusive: 39.8 µM [rising, single point]",–
COc1ccc(CNC(=O)CC[C@H]2CNC(=O)[C@@H]3[C@@H](CCN3Cc3ncc[nH]3)N2C)cc1,–,inactive: 7.02%
CCN(CC)C(=O)[C@@H]1CCC[C@@H](NC(=O)c2ccc(C#N)cc2)CN(C)C(=O)C1,–,inactive: 2.58% [at 87.6 µM]
c1cc(CN2CCc3c(sc4ncnc(N5CCCC5)c34)C2)ccn1,"inconclusive: 25.1 µM [rising, single point]",–
COc1ccccc1N1CCCc2ncc(C(=O)NCCc3c[nH]c4ccccc34)cc21,"inconclusive: 39.8 µM [cytotoxic, partial curve, poor fit]",–
COc1cccc([S+](=O)([O-])N2CCN(C(=O)c3nc4cccnc4n(CC(C)C)c3=O)CC2)c1,–,inactive: -2.82%
O=C1CN(C(=O)COc2ccc(Cl)cc2Cl)C(c2ccc(F)cc2)c2cc(F)ccc2N1 (stereo unspecified),"inconclusive: 35.5 µM [cytotoxic, single point]",–
O=S(=O)(c1cccc2nsnc12)N1CCCC(c2nc(CCOCC3CC3)no2)C1 (stereo unspecified),"inconclusive: 39.8 µM [cytotoxic, single point]",–
CCc1cccc(NC(=O)c2c(C)oc3ncnc(N4CCCCC4)c23)c1,"inconclusive: 20 µM [cytotoxic, single point]",–
